Measured values published in the supplement of paper PMC11876631.
± gives the standard deviation of the averaged measurements. Laboratory Escherichia coli strains with one amino-acid change in an essential protein, pooled on minimal glucose agar with carbenicillin or gentamicin at twice the control MIC (plus kanamycin and chloramphenicol for the plasmids), 48 h. Fold change of barcode share against drug-free plates; higher = less susceptible. Active = above 20 in both replicates (the paper's putatively resistant). '<' = one read or none on drug, '>' = one read or none on a drug-free plate. Shares are relative, so most strains fall below 1 when a few take over. Listed are strains with at least 15 reads on both drug-free plates, and hits; most hits rest on fewer reference reads. Replicate rank correlation about 0.5. Edits are read from barcodes.

B1: topA; numbered along this chain (parent)
chain: MGKALVIVESPAKAKTINKYLGSDYVVKSSVGHIRDLPTSGSAAKKSADSTSTKTAKKPKKDERGALVNRMGVDPWHNWEAHYEVLPGKEKVVSELKQLAEKADHIYLATDLDREGEAIAWHLREVIGGDDARYSRVVFNEITKNAIRQAFNKPGELNIDRVNAQQARRFMDRVVGYMVSPLLWKKIARGLSAGRVQSVAVRLVVEREREIKAFVPEEFWEVDASTTTPSGEALALQVTHQNDKPFRPVNKEQTQAAVSLLEKARYSVLEREDKPTTSKPGAPFITSTLQQAASTRLGFGVKKTMMMAQRLYEAGYITYMRTDSTNLSQDAVNMVRGYISDNFGKKYLPESPNQYASKENSQEAHEAIRPSDVNVMAESLKDMEADAQKLYQLIWRQFVACQMTPAKYDSTTLTVGAGDFRLKARGRILRFDGWTKVMPALRKGDEDRILPAVNKGDALTLVELTPAQHFTKPPARFSEASLVKELEKRGIGRPSTYASIISTIQDRGYVRVENRRFYAEKMGEIVTDRLEENFRELMNYDFTAQMENSLDQVANHEAEWKAVLDHFFSDFTQQLDKAEKDPEEGGMRPNQMVLTSIDCPTCGRKMGIRTASTGVFLGCSGYALPPKERCKTTINLVPENEVLNVLEGEDAETNALRAKRRCPKCGTAMDSYLIDPKRKLHVCGNNPTCDGYEIEEGEFRIKGYDGPIVECEKCGSEMHLKMGRFGKYMACTNEECKNTRKILRNGEVAPPKEDPVPLPELPCEKSDAYFVLRDGAAGVFLAANTFPKSRETRAPLVEELYRFRDRLPEKLRYLADAPQQDPEGNKTMVRFSRKTKQQYVSSEKDGKATGWSAFYVDGKWVEGKK
B2: gpsA; numbered along this chain (parent)
chain: MNQRNASMTVIGAGSYGTALAITLARNGHEVVLWGHDPEHIATLERDRCNAAFLPDVPFPDTLHLESDLATALAASRNILVVVPSHVFGEVLRQIKPLMRPDARLVWATKGLEAETGRLLQDVAREALGDQIPLAVISGPTFAKELAAGLPTAISLASTDQTFADDLQQLLHCGKSFRVYSNPDFIGVQLGGAVKNVIAIGAGMSDGIGFGANARTALITRGLAEMSRLGAALGADPATFMGMAGLGDLVLTCTDNQSRNRRFGMMLGQGMDVQSAQEKIGQVVEGYRNTKEVRELAHRFGVEMPITEEIYQVLYCGKNAREAALTLLGRARKDERSSH

Variants of: B1
Test: barcode share on antibiotic plates over drug-free plates; higher = less susceptible
Settings: with Escherichia coli (laboratory strain); antibiotic: gentamicin; 2× MIC (MIC 0.45 µg/mL)
Experimental: (§1)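 A pool of E. coli strains, each edited to carry one amino-acid change in an essential protein, was grown for 48 h on minimal glucose agar with or without antibiotic; strain barcodes were sequenced; mean of two replicates.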

Row | Variant | fold change of barcode share
1 | V204W | 2.14 ± 1.5
2 | V204P | 0.00982 ± 0.0086
3 | V204D | 3.74 ± 4.2
4 | V199A | < 0.0202
5 | V199D | 0.02575 ± 0.00022
6 | V199Q | < 0.00445
7 | V199P | 0.00518 ± 0.00053
8 | F571W | < 0.00907
9 | F571Q | 1.12 ± 0.48
10 | F571A | 0.0645 ± 0.028
11 | L550A | 0.0123 ± 0.01
12 | L550W | < 0.0108
13 | L550Q | 0.0905 ± 0.1
14 | L550P | > 121 [active]
15 | V8A | 0.0185 ± 0.021
16 | V8P | > 357 [active]
17 | V6A | 0.125 ± 0.16
18 | V6W | 5.46 ± 6.3

Same assay, conditions: with Escherichia coli (laboratory strain); antibiotic: carbenicillin; 2× MIC (3.1 µg/mL)

Row | Variant | fold change of barcode share
19 | V204P | 0.174 ± 0.056
20 | V199D | 0.363 ± 0.041
21 | V199Q | 0.282 ± 0.053
22 | V199P | 0.267 ± 0.091
23 | F571Q | 1.11 ± 0.015
24 | L550A | 0.407 ± 0.13
25 | L550W | 0.3291 ± 0.0027
26 | V8A | 0.148 ± 0.023
27 | V6A | 0.293 ± 0.21
28 | V6W | 0.203 ± 0.15

Variants of: B2
Test: as above
Settings: with Escherichia coli (laboratory strain); antibiotic: carbenicillin; 2× MIC (3.1 µg/mL)
Experimental: as §1

Row | Variant | fold change of barcode share
29 | F88A | 0.2255 ± 0.0022
30 | F88Q | 0.247 ± 0.054
31 | L80D | 0.351 ± 0.13
32 | L80A | 0.385 ± 0.2
33 | L80W | 0.307 ± 0.078
34 | L80Q | 0.444 ± 0.0039
35 | V194D | 0.273 ± 0.1
36 | V194A | 0.329 ± 0.1
37 | V194Q | 0.36 ± 0.0048
38 | V194W | 0.764 ± 0.61
39 | L33W | 0.245 ± 0.081
40 | L33A | 0.237 ± 0.031
41 | L33Q | 0.353 ± 0.046

Same assay, conditions: with Escherichia coli (laboratory strain); antibiotic: gentamicin; 2× MIC (MIC 0.45 µg/mL)

Row | Variant | fold change of barcode share
42 | F88A | 0.00425 ± 0.00026
43 | F88Q | < 0.00242
44 | L80D | < 0.00676
45 | L80A | 0.0128 ± 0.013
46 | L80W | 0.0255 ± 0.033
47 | L80Q | 0.0132 ± 0.0011
48 | V194D | 0.00574 ± 0.0049
49 | V194A | 0.273 ± 0.38
50 | V194Q | 0.0136 ± 0.0074
51 | V194W | 0.0047 ± 0.0026
52 | L33W | 0.0114 ± 0.0098
53 | L33A | 0.00857 ± 0.007
54 | L33Q | 0.00867 ± 0.0076
